Assay results: paper PMC7220951
No constants are given. Whether binding was seen depends on the method and setting. Binding seen in cells or lysates may run through a third protein. Some results given as binding are weak or reduced against the parent protein; the word gives no strength. Tags and fused reporters may be left off the sequences shown.

What was measured:
[1] = target: T1, GST-Galla1-N (Drosophila) (UniProt Q9V968); test: pull-down; in vitro GST pull-down of GST and MBP fusion proteins from bacterial cell lysates; 20 mM Tris pH 7.5, 150 mM NaCl, 0.5 mM EDTA, 10% glycerol, 0.1% Triton-X100, 1 mM DTT, protease inhibitor cocktail; blots with anti-MBP and anti-GST
T1 sequence: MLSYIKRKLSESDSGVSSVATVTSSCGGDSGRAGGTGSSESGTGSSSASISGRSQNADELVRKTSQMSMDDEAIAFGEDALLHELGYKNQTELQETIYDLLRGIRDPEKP

[2] = target: T2, GST-Galla1-C (Drosophila) (UniProt Q9V968); test: as above
T2 sequence: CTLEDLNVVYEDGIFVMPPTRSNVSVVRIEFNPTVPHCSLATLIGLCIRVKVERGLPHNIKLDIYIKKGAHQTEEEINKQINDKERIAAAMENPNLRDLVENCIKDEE

[3] = target: T3, Galla1 (Drosophila) (UniProt Q9V968); test: as above
T3 sequence: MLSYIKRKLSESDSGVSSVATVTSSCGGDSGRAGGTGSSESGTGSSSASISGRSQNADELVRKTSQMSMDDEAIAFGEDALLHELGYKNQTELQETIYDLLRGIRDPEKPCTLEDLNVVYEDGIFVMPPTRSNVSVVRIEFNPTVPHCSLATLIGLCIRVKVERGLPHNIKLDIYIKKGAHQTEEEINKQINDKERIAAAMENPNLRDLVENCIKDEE

[4] = target: T4, Flag-Xpd (Drosophila) (UniProt Q7KVP9); test: co-IP; transfected Drosophila S2 cells lysed in 0.1% CHAPS buffer; immunoprecipitation with anti-Myc or anti-Flag on protein G-sepharose overnight at 4 °C; blot with anti-Flag or anti-V5
T4 sequence: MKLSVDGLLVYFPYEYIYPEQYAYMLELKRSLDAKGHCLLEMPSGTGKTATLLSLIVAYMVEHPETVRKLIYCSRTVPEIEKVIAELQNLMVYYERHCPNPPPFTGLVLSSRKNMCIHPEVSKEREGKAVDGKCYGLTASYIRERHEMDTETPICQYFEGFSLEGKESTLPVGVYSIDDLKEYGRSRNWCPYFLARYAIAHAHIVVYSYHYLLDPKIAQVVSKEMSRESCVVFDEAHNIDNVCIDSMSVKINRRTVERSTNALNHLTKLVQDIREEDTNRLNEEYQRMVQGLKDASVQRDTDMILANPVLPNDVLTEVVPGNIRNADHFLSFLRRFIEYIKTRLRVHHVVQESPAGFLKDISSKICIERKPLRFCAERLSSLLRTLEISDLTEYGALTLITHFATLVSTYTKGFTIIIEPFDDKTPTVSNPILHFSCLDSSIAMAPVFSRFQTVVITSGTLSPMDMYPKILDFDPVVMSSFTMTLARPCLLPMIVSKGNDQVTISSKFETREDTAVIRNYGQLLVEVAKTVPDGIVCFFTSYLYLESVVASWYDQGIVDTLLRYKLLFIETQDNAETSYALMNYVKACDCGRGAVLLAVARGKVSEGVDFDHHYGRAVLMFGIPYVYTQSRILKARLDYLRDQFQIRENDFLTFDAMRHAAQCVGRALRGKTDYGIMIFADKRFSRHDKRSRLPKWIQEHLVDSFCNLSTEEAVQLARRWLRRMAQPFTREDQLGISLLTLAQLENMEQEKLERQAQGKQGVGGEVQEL

[5] = target: T5, Myc-Galla1 (Drosophila) (UniProt Q9V968); test: as above
T5 sequence: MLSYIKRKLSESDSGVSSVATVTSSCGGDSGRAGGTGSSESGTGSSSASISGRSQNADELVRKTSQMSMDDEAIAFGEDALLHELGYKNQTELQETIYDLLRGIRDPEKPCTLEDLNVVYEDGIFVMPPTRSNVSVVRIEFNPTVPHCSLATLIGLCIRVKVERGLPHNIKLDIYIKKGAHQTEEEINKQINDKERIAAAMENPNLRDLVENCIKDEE

[6] = target: T6, GST-Ciao1 (Drosophila) (UniProt Q7K1Y4); test: pull-down; in vitro GST pull-down of GST and MBP fusion proteins from bacterial cell lysates; 20 mM Tris pH 7.5, 150 mM NaCl, 0.5 mM EDTA, 10% glycerol, 0.1% Triton-X100, 1 mM DTT, protease inhibitor cocktail; blots with anti-MBP and anti-GST
T6 sequence: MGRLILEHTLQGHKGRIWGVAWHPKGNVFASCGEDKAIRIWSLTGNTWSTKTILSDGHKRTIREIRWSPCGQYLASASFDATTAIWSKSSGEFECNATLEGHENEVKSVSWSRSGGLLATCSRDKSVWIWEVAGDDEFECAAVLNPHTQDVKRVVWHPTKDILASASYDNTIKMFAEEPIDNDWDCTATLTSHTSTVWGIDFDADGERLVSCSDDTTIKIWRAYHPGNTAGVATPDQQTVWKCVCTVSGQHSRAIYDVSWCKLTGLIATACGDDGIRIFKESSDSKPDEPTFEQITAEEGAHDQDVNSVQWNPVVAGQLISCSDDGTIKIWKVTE

B1: MBP-Ciao1 (protein, UniProt Q7K1Y4 1-335)
chain: MGRLILEHTLQGHKGRIWGVAWHPKGNVFASCGEDKAIRIWSLTGNTWSTKTILSDGHKRTIREIRWSPCGQYLASASFDATTAIWSKSSGEFECNATLEGHENEVKSVSWSRSGGLLATCSRDKSVWIWEVAGDDEFECAAVLNPHTQDVKRVVWHPTKDILASASYDNTIKMFAEEPIDNDWDCTATLTSHTSTVWGIDFDADGERLVSCSDDTTIKIWRAYHPGNTAGVATPDQQTVWKCVCTVSGQHSRAIYDVSWCKLTGLIATACGDDGIRIFKESSDSKPDEPTFEQITAEEGAHDQDVNSVQWNPVVAGQLISCSDDGTIKIWKVTE
**Q.** What does the source list for B1?
**A.** binding [1]: no binding; binding [2]: binds; binding [3]: binds

B2: V5-Ciao1 (protein, UniProt Q7K1Y4 1-335)
chain: MGRLILEHTLQGHKGRIWGVAWHPKGNVFASCGEDKAIRIWSLTGNTWSTKTILSDGHKRTIREIRWSPCGQYLASASFDATTAIWSKSSGEFECNATLEGHENEVKSVSWSRSGGLLATCSRDKSVWIWEVAGDDEFECAAVLNPHTQDVKRVVWHPTKDILASASYDNTIKMFAEEPIDNDWDCTATLTSHTSTVWGIDFDADGERLVSCSDDTTIKIWRAYHPGNTAGVATPDQQTVWKCVCTVSGQHSRAIYDVSWCKLTGLIATACGDDGIRIFKESSDSKPDEPTFEQITAEEGAHDQDVNSVQWNPVVAGQLISCSDDGTIKIWKVTE
**Q.** With B2 as the binder, how does the binding [4] read?
**A.** Its binding is “binds”.

**Q.** And the binding [5]?
**A.** The binding was “binds”.

B3: MBP-Xpd (protein, UniProt Q7KVP9 1-769)
chain: MKLSVDGLLVYFPYEYIYPEQYAYMLELKRSLDAKGHCLLEMPSGTGKTATLLSLIVAYMVEHPETVRKLIYCSRTVPEIEKVIAELQNLMVYYERHCPNPPPFTGLVLSSRKNMCIHPEVSKEREGKAVDGKCYGLTASYIRERHEMDTETPICQYFEGFSLEGKESTLPVGVYSIDDLKEYGRSRNWCPYFLARYAIAHAHIVVYSYHYLLDPKIAQVVSKEMSRESCVVFDEAHNIDNVCIDSMSVKINRRTVERSTNALNHLTKLVQDIREEDTNRLNEEYQRMVQGLKDASVQRDTDMILANPVLPNDVLTEVVPGNIRNADHFLSFLRRFIEYIKTRLRVHHVVQESPAGFLKDISSKICIERKPLRFCAERLSSLLRTLEISDLTEYGALTLITHFATLVSTYTKGFTIIIEPFDDKTPTVSNPILHFSCLDSSIAMAPVFSRFQTVVITSGTLSPMDMYPKILDFDPVVMSSFTMTLARPCLLPMIVSKGNDQVTISSKFETREDTAVIRNYGQLLVEVAKTVPDGIVCFFTSYLYLESVVASWYDQGIVDTLLRYKLLFIETQDNAETSYALMNYVKACDCGRGAVLLAVARGKVSEGVDFDHHYGRAVLMFGIPYVYTQSRILKARLDYLRDQFQIRENDFLTFDAMRHAAQCVGRALRGKTDYGIMIFADKRFSRHDKRSRLPKWIQEHLVDSFCNLSTEEAVQLARRWLRRMAQPFTREDQLGISLLTLAQLENMEQEKLERQAQGKQGVGGEVQEL
**Q.** With B3 as the binder, how does the binding [6] read?
**A.** Its binding is “binds”.
